{
  "source": "the supplement of paper PMC8728848",
  "binders": {"B1": {"name": "CFEM-SCL (Saccharomyces cerevisiae), O13547 (protein)", "chain": "MRATTLLSSVVSLALLSKEVLATPPACLLACVAQVGKSSSTCDSLNQVTCYCEHENSAVKKCLDSICPNNDADAAYSAFKSSCSEQNASLGD"}},
  "assay_in_all_cases": "glycan array binding signal (z-score within array); higher = stronger binding",
  "settings_in_all_cases": "glycan notation: IUPAC condensed, linker removed",
  "key": {"Gal6S(b1-4)Glc": {"target": "Gal6S(b1-4)Glc", "outline": "(§1)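 Glycan array data were curated from 3228 arrays in the Consortium for Functional Glycomics database and kept only where the protein sequence was available. Glycan names were converted to IUPAC-condensed notation, and columns mapping to the same glycan were averaged. The binding signal is a within-array Z-score, averaged across arrays of the same protein sequence at different concentrations or buffers and across linkers. Negative Z-scores can be read as non-binding.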"}, "Gal6S(b1-4)Glc6S": {"target": "Gal6S(b1-4)Glc6S", "outline": "as §1"}, "Gal6S(b1-4)GlcNAc": {"target": "Gal6S(b1-4)GlcNAc", "outline": "as §1"}, "Gal6S(b1-4)GlcNAc6S": {"target": "Gal6S(b1-4)GlcNAc6S", "outline": "as §1"}, "GalNAc(a1-3)Gal": {"target": "GalNAc(a1-3)Gal", "outline": "as §1"}, "GalNAc(a1-3)GalNAc": {"target": "GalNAc(a1-3)GalNAc", "outline": "as §1"}, "[1]": {"target": "GalNAc(a1-3)GalNAc(b1-3)Gal(a1-4)Gal(b1-4)Glc", "outline": "as §1"}, "[2]": {"target": "GalNAc(a1-3)GalNAc(b1-3)Gal(a1-4)Gal(b1-4)GlcNAc", "outline": "as §1"}, "GalNAc(b1-3)Gal": {"target": "GalNAc(b1-3)Gal", "outline": "as §1"}, "[3]": {"target": "GalNAc(b1-3)Gal(a1-4)Gal(b1-4)GlcNAc", "outline": "as §1"}, "[4]": {"target": "GalNAc(b1-3)Gal(a1-4)Gal(b1-4)GlcNAc(b1-3)Gal(b1-4)Glc", "outline": "as §1"}, "[5]": {"target": "GalNAc(b1-3)Gal(a1-6)Gal(b1-4)Glc", "outline": "as §1"}, "GalNAc(b1-3)GalNAc": {"target": "GalNAc(b1-3)GalNAc", "outline": "as §1"}, "GalNAc(b1-3)GlcNAc": {"target": "GalNAc(b1-3)GlcNAc", "outline": "as §1"}, "GalNAc(b1-4)Gal(b1-4)Glc": {"target": "GalNAc(b1-4)Gal(b1-4)Glc", "outline": "as §1"}, "GalNAc(b1-4)GlcNAc": {"target": "GalNAc(b1-4)GlcNAc", "outline": "as §1"}, "[6]": {"target": "GalNAc(b1-4)GlcNAc(b1-2)Man", "outline": "as §1"}, "[7]": {"target": "GalNAc(b1-4)GlcNAc(b1-2)Man(a1-3)[GalNAc(b1-4)GlcNAc(b1-2)Man(a1-6)]Man(b1-4)GlcNAc(b1-4)GlcNAc", "outline": "as §1"}, "[8]": {"target": "GalNAc(b1-4)GlcNAc(b1-3)GalNAc(b1-4)GlcNAc", "outline": "as §1"}, "GalNAc(b1-4)GlcNAc6S": {"target": "GalNAc(b1-4)GlcNAc6S", "outline": "as §1"}, "GalNAc(b1-6)GalNAc": {"target": "GalNAc(b1-6)GalNAc", "outline": "as §1"}, "GalNAc3S(b1-4)GlcNAc": {"target": "GalNAc3S(b1-4)GlcNAc", "outline": "as §1"}, "GalNAc3S(b1-4)GlcNAc3S": {"target": "GalNAc3S(b1-4)GlcNAc3S", "outline": "as §1"}, "[9]": {"target": "GalNAc3S(b1-4)[Fuc(a1-3)]GlcNAc", "outline": "as §1"}, "GalNAc4S6S(b1-4)GlcNAc": {"target": "GalNAc4S6S(b1-4)GlcNAc", "outline": "as §1"}, "GalNAc6S(b1-4)GlcNAc": {"target": "GalNAc6S(b1-4)GlcNAc", "outline": "as §1"}, "Glc(a1-4)Glc": {"target": "Glc(a1-4)Glc", "outline": "as §1"}, "[10]": {"target": "Glc(a1-4)Glc(a1-4)Glc(a1-4)Glc", "outline": "as §1"}, "Glc(a1-6)Glc(a1-6)Glc": {"target": "Glc(a1-6)Glc(a1-6)Glc", "outline": "as §1"}, "[11]": {"target": "Glc(a1-6)Glc(a1-6)Glc(a1-6)Glc", "outline": "as §1"}, "Glc(b1-4)Glc": {"target": "Glc(b1-4)Glc", "outline": "as §1"}, "Glc(b1-6)Glc": {"target": "Glc(b1-6)Glc", "outline": "as §1"}, "GlcA(b1-3)Gal": {"target": "GlcA(b1-3)Gal", "outline": "as §1"}, "GlcA(b1-3)GlcNAc": {"target": "GlcA(b1-3)GlcNAc", "outline": "as §1"}, "GlcA(b1-6)Gal": {"target": "GlcA(b1-6)Gal", "outline": "as §1"}, "[12]": {"target": "GlcA3S(b1-3)Gal(b1-4)GlcNAc(b1-2)Man", "outline": "as §1"}, "[13]": {"target": "GlcA3S(b1-3)Gal(b1-4)GlcNAc(b1-3)Gal(b1-4)Glc", "outline": "as §1"}, "[14]": {"target": "GlcNAc(a1-3)Gal(b1-4)GlcNAc", "outline": "as §1"}, "[15]": {"target": "GlcNAc(a1-4)Gal(b1-3)GlcNAc", "outline": "as §1"}, "[16]": {"target": "GlcNAc(a1-4)Gal(b1-4)GalNAc", "outline": "as §1"}, "[17]": {"target": "GlcNAc(a1-4)Gal(b1-4)GlcNAc", "outline": "as §1"}, "[18]": {"target": "GlcNAc(a1-4)Gal(b1-4)GlcNAc(b1-3)Gal(b1-4)Glc", "outline": "as §1"}, "[19]": {"target": "GlcNAc(a1-4)Gal(b1-4)GlcNAc(b1-3)Gal(b1-4)GlcNAc", "outline": "as §1"}, "[20]": {"target": "GlcNAc(a1-4)Gal(b1-4)GlcNAc(b1-3)Gal(b1-4)GlcNAc(b1-3)Gal(b1-4)GlcNAc", "outline": "as §1"}, "[21]": {"target": "GlcNAc(a1-4)Gal(b1-4)GlcNAc(b1-3)Gal(b1-4)[Fuc(a1-3)]GlcNAc(b1-3)Gal(b1-4)[Fuc(a1-3)]GlcNAc", "outline": "as §1"}},
  "note": "Some of the results follow.",
  "data": [
    {"binder": "B1", "values": [
      {"measurement": "glycan array binding signal (z-score)", "setting": "Gal6S(b1-4)Glc", "result": 0.321},
      {"measurement": "glycan array binding signal (z-score)", "setting": "Gal6S(b1-4)Glc6S", "result": 1.11},
      {"measurement": "glycan array binding signal (z-score)", "setting": "Gal6S(b1-4)GlcNAc", "result": -0.027},
      {"measurement": "glycan array binding signal (z-score)", "setting": "Gal6S(b1-4)GlcNAc6S", "result": 0.633},
      {"measurement": "glycan array binding signal (z-score)", "setting": "GalNAc(a1-3)Gal", "result": -0.222},
      {"measurement": "glycan array binding signal (z-score)", "setting": "GalNAc(a1-3)GalNAc", "result": -0.242},
      {"measurement": "glycan array binding signal (z-score)", "setting": "[1]", "result": -0.264},
      {"measurement": "glycan array binding signal (z-score)", "setting": "[2]", "result": -0.281},
      {"measurement": "glycan array binding signal (z-score)", "setting": "GalNAc(b1-3)Gal", "result": -0.194},
      {"measurement": "glycan array binding signal (z-score)", "setting": "[3]", "result": -0.287},
      {"measurement": "glycan array binding signal (z-score)", "setting": "[4]", "result": -0.344},
      {"measurement": "glycan array binding signal (z-score)", "setting": "[5]", "result": -0.194},
      {"measurement": "glycan array binding signal (z-score)", "setting": "GalNAc(b1-3)GalNAc", "result": -0.164},
      {"measurement": "glycan array binding signal (z-score)", "setting": "GalNAc(b1-3)GlcNAc", "result": -0.221},
      {"measurement": "glycan array binding signal (z-score)", "setting": "GalNAc(b1-4)Gal(b1-4)Glc", "result": -0.137},
      {"measurement": "glycan array binding signal (z-score)", "setting": "GalNAc(b1-4)GlcNAc", "result": 0.047},
      {"measurement": "glycan array binding signal (z-score)", "setting": "[6]", "result": -0.281},
      {"measurement": "glycan array binding signal (z-score)", "setting": "[7]", "result": -0.012},
      {"measurement": "glycan array binding signal (z-score)", "setting": "[8]", "result": -0.383},
      {"measurement": "glycan array binding signal (z-score)", "setting": "GalNAc(b1-4)GlcNAc6S", "result": -0.279},
      {"measurement": "glycan array binding signal (z-score)", "setting": "GalNAc(b1-6)GalNAc", "result": -0.254},
      {"measurement": "glycan array binding signal (z-score)", "setting": "GalNAc3S(b1-4)GlcNAc", "result": 0.022},
      {"measurement": "glycan array binding signal (z-score)", "setting": "GalNAc3S(b1-4)GlcNAc3S", "result": -0.259},
      {"measurement": "glycan array binding signal (z-score)", "setting": "[9]", "result": -0.178},
      {"measurement": "glycan array binding signal (z-score)", "setting": "GalNAc4S6S(b1-4)GlcNAc", "result": -0.241},
      {"measurement": "glycan array binding signal (z-score)", "setting": "GalNAc6S(b1-4)GlcNAc", "result": -0.324},
      {"measurement": "glycan array binding signal (z-score)", "setting": "Glc(a1-4)Glc", "result": -0.252},
      {"measurement": "glycan array binding signal (z-score)", "setting": "[10]", "result": -0.317},
      {"measurement": "glycan array binding signal (z-score)", "setting": "Glc(a1-6)Glc(a1-6)Glc", "result": -0.164},
      {"measurement": "glycan array binding signal (z-score)", "setting": "[11]", "result": -0.331},
      {"measurement": "glycan array binding signal (z-score)", "setting": "Glc(b1-4)Glc", "result": -0.221},
      {"measurement": "glycan array binding signal (z-score)", "setting": "Glc(b1-6)Glc", "result": -0.291},
      {"measurement": "glycan array binding signal (z-score)", "setting": "GlcA(b1-3)Gal", "result": -0.286},
      {"measurement": "glycan array binding signal (z-score)", "setting": "GlcA(b1-3)GlcNAc", "result": -0.277},
      {"measurement": "glycan array binding signal (z-score)", "setting": "GlcA(b1-6)Gal", "result": 1.15},
      {"measurement": "glycan array binding signal (z-score)", "setting": "[12]", "result": -0.222},
      {"measurement": "glycan array binding signal (z-score)", "setting": "[13]", "result": -0.231},
      {"measurement": "glycan array binding signal (z-score)", "setting": "[14]", "result": -0.281},
      {"measurement": "glycan array binding signal (z-score)", "setting": "[15]", "result": -0.301},
      {"measurement": "glycan array binding signal (z-score)", "setting": "[16]", "result": -0.226},
      {"measurement": "glycan array binding signal (z-score)", "setting": "[17]", "result": -0.226},
      {"measurement": "glycan array binding signal (z-score)", "setting": "[18]", "result": -0.144},
      {"measurement": "glycan array binding signal (z-score)", "setting": "[19]", "result": -0.225},
      {"measurement": "glycan array binding signal (z-score)", "setting": "[20]", "result": -0.258},
      {"measurement": "glycan array binding signal (z-score)", "setting": "[21]", "result": -0.083}
    ]}
  ]
}
